The text below walks through data of publication PMC5828529.

These are yes or no findings as the source states them, for the method shown. For some assays here: Binding seen in cells or lysates may run through a third protein. Some entries that bind do so weakly or less than the wild type. Where a sequence is shown, tags or fusion partners need not be part of it.

The target of assay [1] is T1, Mer2-Flag (S. cerevisiae) (UniProt P21651).
T1 sequence: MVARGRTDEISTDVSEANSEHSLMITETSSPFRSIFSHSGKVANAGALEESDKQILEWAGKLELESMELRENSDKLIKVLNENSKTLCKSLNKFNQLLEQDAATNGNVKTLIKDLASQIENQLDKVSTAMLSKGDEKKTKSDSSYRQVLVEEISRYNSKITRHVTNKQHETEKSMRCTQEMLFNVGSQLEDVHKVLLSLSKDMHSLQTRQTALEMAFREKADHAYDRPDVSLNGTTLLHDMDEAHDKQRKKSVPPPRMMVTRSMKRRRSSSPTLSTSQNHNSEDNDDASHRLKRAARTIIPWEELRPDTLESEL
Briefly: co-IP; Mer2-Flag precipitated with anti-FLAG M2 magnetic beads from cells at 3.5 hr in meiosis, eluted with Flag peptide; lysis buffer 150 mM NaCl, 0.5% Triton X-100, benzonase; western blot.

The target in assay [2] is T2, Set1 (two-hybrid fusion) (S. cerevisiae) (UniProt P38827).
T2 sequence: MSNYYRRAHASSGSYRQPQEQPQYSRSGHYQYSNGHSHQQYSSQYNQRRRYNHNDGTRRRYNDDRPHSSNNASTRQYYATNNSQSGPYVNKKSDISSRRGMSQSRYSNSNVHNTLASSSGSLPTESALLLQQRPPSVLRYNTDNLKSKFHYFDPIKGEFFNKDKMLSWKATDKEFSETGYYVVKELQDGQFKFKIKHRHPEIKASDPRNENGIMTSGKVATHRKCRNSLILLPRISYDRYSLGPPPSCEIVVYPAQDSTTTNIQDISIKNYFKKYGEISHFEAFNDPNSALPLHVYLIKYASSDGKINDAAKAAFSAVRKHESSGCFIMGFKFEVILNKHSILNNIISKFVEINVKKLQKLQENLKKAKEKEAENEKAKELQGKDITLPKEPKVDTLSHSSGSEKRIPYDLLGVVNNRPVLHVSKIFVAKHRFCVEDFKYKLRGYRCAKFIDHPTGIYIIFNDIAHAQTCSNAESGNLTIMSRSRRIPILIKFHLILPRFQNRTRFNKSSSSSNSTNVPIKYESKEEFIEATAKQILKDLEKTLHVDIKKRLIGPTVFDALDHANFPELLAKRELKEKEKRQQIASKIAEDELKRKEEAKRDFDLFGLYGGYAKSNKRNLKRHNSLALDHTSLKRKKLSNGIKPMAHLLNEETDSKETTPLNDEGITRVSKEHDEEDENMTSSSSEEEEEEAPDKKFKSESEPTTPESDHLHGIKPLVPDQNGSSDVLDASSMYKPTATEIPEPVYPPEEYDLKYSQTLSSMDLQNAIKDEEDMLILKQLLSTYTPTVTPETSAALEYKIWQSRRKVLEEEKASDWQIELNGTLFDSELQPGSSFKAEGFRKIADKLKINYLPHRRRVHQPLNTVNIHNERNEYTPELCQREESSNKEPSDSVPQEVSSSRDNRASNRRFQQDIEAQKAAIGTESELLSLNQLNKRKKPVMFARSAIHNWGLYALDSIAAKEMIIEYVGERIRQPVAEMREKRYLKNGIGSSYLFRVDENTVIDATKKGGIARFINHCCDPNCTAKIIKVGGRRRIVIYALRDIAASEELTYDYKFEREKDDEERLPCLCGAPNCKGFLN
Description: two-hybrid; Gal4 activation domain and Gal4 DNA-binding domain N-terminal fusions in Y187 and AH109, mated; growth on medium without leucine, tryptophan and histidine.

For assay [3], the target named is T3, Mer2 (two-hybrid fusion) (S. cerevisiae) (UniProt P21651).
T3 sequence: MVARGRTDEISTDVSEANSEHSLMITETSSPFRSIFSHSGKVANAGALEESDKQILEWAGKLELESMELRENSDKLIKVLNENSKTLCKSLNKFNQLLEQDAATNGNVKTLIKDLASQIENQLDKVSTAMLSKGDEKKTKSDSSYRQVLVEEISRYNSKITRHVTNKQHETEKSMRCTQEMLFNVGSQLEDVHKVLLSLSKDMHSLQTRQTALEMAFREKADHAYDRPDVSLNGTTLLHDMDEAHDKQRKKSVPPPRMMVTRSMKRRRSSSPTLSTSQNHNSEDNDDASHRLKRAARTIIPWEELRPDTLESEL
Described as above.

Assay [4] concerns the target T4, Mer2 V195D (two-hybrid fusion) (S. cerevisiae) (UniProt P21651).
T4 sequence: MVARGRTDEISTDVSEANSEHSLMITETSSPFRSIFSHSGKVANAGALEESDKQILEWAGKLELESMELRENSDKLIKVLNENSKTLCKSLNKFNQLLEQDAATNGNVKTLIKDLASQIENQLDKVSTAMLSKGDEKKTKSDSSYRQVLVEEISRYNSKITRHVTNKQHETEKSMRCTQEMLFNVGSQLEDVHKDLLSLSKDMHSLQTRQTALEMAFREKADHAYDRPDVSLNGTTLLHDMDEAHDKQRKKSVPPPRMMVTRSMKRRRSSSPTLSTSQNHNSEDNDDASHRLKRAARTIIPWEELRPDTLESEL
Described as above.

A further assay has as its target T5, Spp1-TAP (S. cerevisiae) (UniProt Q03012).
T5 sequence: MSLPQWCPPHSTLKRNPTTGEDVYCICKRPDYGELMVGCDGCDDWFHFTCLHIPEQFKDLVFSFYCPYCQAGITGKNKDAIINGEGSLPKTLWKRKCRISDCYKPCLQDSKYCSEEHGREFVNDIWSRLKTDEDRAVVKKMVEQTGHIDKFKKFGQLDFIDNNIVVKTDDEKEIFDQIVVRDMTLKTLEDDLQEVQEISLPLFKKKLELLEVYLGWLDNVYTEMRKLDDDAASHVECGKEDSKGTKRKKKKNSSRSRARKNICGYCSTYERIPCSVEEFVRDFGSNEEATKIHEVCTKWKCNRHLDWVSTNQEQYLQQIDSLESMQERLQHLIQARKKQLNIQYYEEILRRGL
Briefly: co-IP; Spp1-TAP captured on PanMouse IgG magnetic beads from SET1 cells, vegetative or meiotic, eluted by Tev cleavage; lysis buffer 150 mM NaCl, 0.5% Triton X-100, benzonase; western blot with anti-HA, anti-Flag, anti-TAP.

The next assay concerns the target T6, Swd1-HA (S. cerevisiae) (UniProt P39706).
T6 sequence: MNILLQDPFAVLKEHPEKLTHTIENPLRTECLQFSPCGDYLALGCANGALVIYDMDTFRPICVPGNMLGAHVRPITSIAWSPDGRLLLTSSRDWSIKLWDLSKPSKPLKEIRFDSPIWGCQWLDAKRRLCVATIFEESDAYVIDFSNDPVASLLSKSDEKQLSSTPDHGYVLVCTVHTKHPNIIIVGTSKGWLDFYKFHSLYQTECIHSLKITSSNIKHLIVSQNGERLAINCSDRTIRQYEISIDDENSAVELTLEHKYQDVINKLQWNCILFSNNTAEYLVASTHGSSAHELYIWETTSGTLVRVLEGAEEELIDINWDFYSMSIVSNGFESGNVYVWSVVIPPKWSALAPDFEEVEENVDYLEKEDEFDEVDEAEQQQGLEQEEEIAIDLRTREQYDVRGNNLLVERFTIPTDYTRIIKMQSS
Description: co-IP; Swd1-HA precipitated with anti-HA 16B12 and Protein G magnetic beads from cells at 3.5 hr in meiosis; lysis buffer 150 mM NaCl, 0.5% Triton X-100, benzonase; western blot with anti-HA, anti-Myc, anti-Flag.

B1: Spp1-Myc (protein, UniProt Q03012 1-353)
chain: MSLPQWCPPHSTLKRNPTTGEDVYCICKRPDYGELMVGCDGCDDWFHFTCLHIPEQFKDLVFSFYCPYCQAGITGKNKDAIINGEGSLPKTLWKRKCRISDCYKPCLQDSKYCSEEHGREFVNDIWSRLKTDEDRAVVKKMVEQTGHIDKFKKFGQLDFIDNNIVVKTDDEKEIFDQIVVRDMTLKTLEDDLQEVQEISLPLFKKKLELLEVYLGWLDNVYTEMRKLDDDAASHVECGKEDSKGTKRKKKKNSSRSRARKNICGYCSTYERIPCSVEEFVRDFGSNEEATKIHEVCTKWKCNRHLDWVSTNQEQYLQQIDSLESMQERLQHLIQARKKQLNIQYYEEILRRGL
As for B1, the binding entry in assay [1] is “binds”.

B2: Spp1 (two-hybrid fusion) (protein, UniProt Q03012 1-353)
chain: MSLPQWCPPHSTLKRNPTTGEDVYCICKRPDYGELMVGCDGCDDWFHFTCLHIPEQFKDLVFSFYCPYCQAGITGKNKDAIINGEGSLPKTLWKRKCRISDCYKPCLQDSKYCSEEHGREFVNDIWSRLKTDEDRAVVKKMVEQTGHIDKFKKFGQLDFIDNNIVVKTDDEKEIFDQIVVRDMTLKTLEDDLQEVQEISLPLFKKKLELLEVYLGWLDNVYTEMRKLDDDAASHVECGKEDSKGTKRKKKKNSSRSRARKNICGYCSTYERIPCSVEEFVRDFGSNEEATKIHEVCTKWKCNRHLDWVSTNQEQYLQQIDSLESMQERLQHLIQARKKQLNIQYYEEILRRGL
With B2, the binding result in assay [2] is reported as “binds”; in assay [3], “binds”; in assay [4], “no binding”.

B3: Spp1∆263–266 (two-hybrid fusion) (protein, UniProt Q03012)
chain: MSLPQWCPPHSTLKRNPTTGEDVYCICKRPDYGELMVGCDGCDDWFHFTCLHIPEQFKDLVFSFYCPYCQAGITGKNKDAIINGEGSLPKTLWKRKCRISDCYKPCLQDSKYCSEEHGREFVNDIWSRLKTDEDRAVVKKMVEQTGHIDKFKKFGQLDFIDNNIVVKTDDEKEIFDQIVVRDMTLKTLEDDLQEVQEISLPLFKKKLELLEVYLGWLDNVYTEMRKLDDDAASHVECGKEDSKGTKRKKKKNSSRSRARKNISTYERIPCSVEEFVRDFGSNEEATKIHEVCTKWKCNRHLDWVSTNQEQYLQQIDSLESMQERLQHLIQARKKQLNIQYYEEILRRGL
With B3, the binding entry in assay [3] is listed as “binds”.

B4: Mer2-Flag (protein, UniProt P21651 1-314)
chain: MVARGRTDEISTDVSEANSEHSLMITETSSPFRSIFSHSGKVANAGALEESDKQILEWAGKLELESMELRENSDKLIKVLNENSKTLCKSLNKFNQLLEQDAATNGNVKTLIKDLASQIENQLDKVSTAMLSKGDEKKTKSDSSYRQVLVEEISRYNSKITRHVTNKQHETEKSMRCTQEMLFNVGSQLEDVHKVLLSLSKDMHSLQTRQTALEMAFREKADHAYDRPDVSLNGTTLLHDMDEAHDKQRKKSVPPPRMMVTRSMKRRRSSSPTLSTSQNHNSEDNDDASHRLKRAARTIIPWEELRPDTLESEL
Regarding B4, the results for the binding result in the assay with Spp1-TAP (S. cerevisiae) and in the assay with Swd1-HA (S. cerevisiae) were “binds” and “no binding”, respectively.

B5: Mer2_sid-Flag (protein, UniProt P21651 1-314)
chain: MVARGRTDEISTDVSEANSEHSLMITETSSPFRSIFSHSGKVANAGALEESDKQILEWAGKLELESMELRENSDKLIKVLNENSKTLCKSLNKFNQLLEQDAATNGNVKTLIKDLASQIENQLDKVSTAMLSKGDEKKTKSDSSYRQVLVEEISRYNSKITRHVTNKQHETEKSMRCTQEMLFNVGSQLEDVHKDLLSLSKDMHSLQTRQTALEMAFREKADHAYDRPDVSLNGTTLLHDMDEAHDKQRKKSVPPPRMMVTRSMKRRRSSSPTLSTSQNHNSEDNDDASHRLKRAARTIIPWEELRPDTLESEL
In the case of B5, the binding result in the assay with Spp1-TAP (S. cerevisiae) is “no binding”.

B6: Shg1 (two-hybrid fusion) (protein, UniProt P38337 1-142)
chain: MAYNQEDSKRLSDKYKKEGHFDKLKREILSNPWNNTEENSESFEQALRKRVASTVKEMVNEDEELIFKNRGLTSALIESQLVKDNYLKLGSKMEGDNGDGEKKFDLDVYVRSKLQDPKLLEMIKGQLQETLNSYEEEANGST
For B6, the binding entry in assay [2] was “binds”.

B7: Swd2 (two-hybrid fusion) (protein, UniProt P36104 1-329)
chain: MTTVSINKPNLLKFKHVKSFQPQEKDCGPVTSLNFDDNGQFLLTSSSNDTMQLYSATNCKFLDTIASKKYGCHSAIFTHAQNECIYSSTMKNFDIKYLNLETNQYLRYFSGHGALVNDLKMNPVNDTFLSSSYDESVRLWDLKISKPQVIIPSLVPNCIAYDPSGLVFALGNPENFEIGLYNLKKIQEGPFLIIKINDATFSQWNKLEFSNNGKYLLVGSSIGKHLIFDAFTGQQLFELIGTRAFPMREFLDSGSACFTPDGEFVLGTDYDGRIAIWNHSDSISNKVLRPQGFIPCVSHETCPRSIAFNPKYSMFVTADETVDFYVYDE
Take B7: the binding result in assay [2] is “binds”.

B8: Swd1-HA (protein, UniProt P39706 1-426)
chain: MNILLQDPFAVLKEHPEKLTHTIENPLRTECLQFSPCGDYLALGCANGALVIYDMDTFRPICVPGNMLGAHVRPITSIAWSPDGRLLLTSSRDWSIKLWDLSKPSKPLKEIRFDSPIWGCQWLDAKRRLCVATIFEESDAYVIDFSNDPVASLLSKSDEKQLSSTPDHGYVLVCTVHTKHPNIIIVGTSKGWLDFYKFHSLYQTECIHSLKITSSNIKHLIVSQNGERLAINCSDRTIRQYEISIDDENSAVELTLEHKYQDVINKLQWNCILFSNNTAEYLVASTHGSSAHELYIWETTSGTLVRVLEGAEEELIDINWDFYSMSIVSNGFESGNVYVWSVVIPPKWSALAPDFEEVEENVDYLEKEDEFDEVDEAEQQQGLEQEEEIAIDLRTREQYDVRGNNLLVERFTIPTDYTRIIKMQSS
With B8, the binding entry in assay [1] is listed as “no binding”.
